Experimental findings from publication PMC10726135 are described below.

The other results are listed elsewhere or left out. At the low end of the ranking the order means little. Measured with an extract: partners may take part in the binding.

The target in this assay is T1, HNF4alpha8 (COS-7 nuclear extract) (UniProt P41235-5).
T1 sequence: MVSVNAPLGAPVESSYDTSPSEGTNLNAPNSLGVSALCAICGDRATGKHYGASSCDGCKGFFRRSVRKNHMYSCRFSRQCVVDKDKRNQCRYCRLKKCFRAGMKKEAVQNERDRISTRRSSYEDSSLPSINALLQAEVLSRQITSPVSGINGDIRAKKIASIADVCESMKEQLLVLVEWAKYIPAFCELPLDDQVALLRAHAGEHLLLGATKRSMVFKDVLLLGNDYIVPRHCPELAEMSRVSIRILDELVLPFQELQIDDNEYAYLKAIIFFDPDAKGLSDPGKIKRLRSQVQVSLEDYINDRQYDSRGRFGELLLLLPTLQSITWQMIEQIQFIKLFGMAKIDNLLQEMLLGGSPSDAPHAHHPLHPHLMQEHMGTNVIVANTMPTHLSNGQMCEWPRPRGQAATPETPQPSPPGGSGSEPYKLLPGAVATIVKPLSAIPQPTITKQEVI
Briefly: protein-binding microarray. The note with it: COS-7 nuclear extract on double-stranded Agilent 4x180k PBM; binding buffer, salt, pH and temperature not given; high values mean tight binding; double strand, one strand shown; sequences stand for … in …GCCTAGGGAGATTAGAGTATCGGTCGA
On to ATGCCCGGCCGACGTGACCCGCCGCCCGAG, for which the binding signal (log2 normalized intensity) turned out to be 2.02.

For AGATGGTCAGTGAACTGTGGTTGACAGGCA, the binding signal (log2 normalized intensity) was found to be 1.01.

On to TACCCTACCTGTTTGCAAGCCCAAAGCCCC, for which the binding signal (log2 normalized intensity) amounted to 2.67.

Turning to GCATTCCAAGTGAGTAAGGAAAGCCACTTC, the binding signal (log2 normalized intensity) was -1.26.

For the sequence TCCAGAAATACTTGTTATATTGGATAGTGC, the binding signal (log2 normalized intensity) was 1.38.

Take GCCTGCCCTTCGCTCCCCGACCTCCTGCTG: the binding signal (log2 normalized intensity) was found to be 2.62.

Take AAATTCCGGGGCTGGAATTTGAACCCAAGC: the binding signal (log2 normalized intensity) is 6.43.

Regarding CATGCCAGGATGGGCTCCTGCCTTGGAGAA, the binding signal (log2 normalized intensity) was -1.35.

As to TCAGCCTGCAAGTTAGGACAGCCCCAGGCC, the binding signal (log2 normalized intensity) was -1.2.

Consider CCTGGTAAGTTCCACTGCATCAGTGCTGAC, for which the binding signal (log2 normalized intensity) is -1.4.

Take GTCAACTCCTCCAAGCCACCTTCCCGGCCT: the binding signal (log2 normalized intensity) was -1.12.

Consider GACTGCAAAATAGACAAACAGCAATAGCAA, for which the binding signal (log2 normalized intensity) was -1.28.

For GGAGTCCAGAGTTCAGGTAGAGGGATTCCC, the binding signal (log2 normalized intensity) is 2.41.

Turning to GACGATGGTTTTCCAATCTGGTGAAAGATG, the binding signal (log2 normalized intensity) amounted to 0.739.

With AGGGAGGTAGTCGCCCTCCGTCGTGGCCTG, the binding signal (log2 normalized intensity) was -0.766.

Turning to GGCTTCCATTCTCAGGCAGATGGGCAGCAC, the binding signal (log2 normalized intensity) was -1.38.

On to CTTTCCTGGTGCCTCCTTATCTCCCCAACT, for which the binding signal (log2 normalized intensity) was 3.48.

Take AAGCCTTTGAACTGTGTTGCAAATTATTAC: the binding signal (log2 normalized intensity) was determined as 1.49.

Take CAGTCATGGAGGCATCATAAACTCCAACTC: the binding signal (log2 normalized intensity) is -1.2.

GCCAATCTGCTTAAAGGCAAAGTCCAGAAC: the binding signal (log2 normalized intensity) came out at 4.75.

Consider TATGTTAATGGCAGAATCAAAGGTCAAAAT, for which the binding signal (log2 normalized intensity) worked out at 5.17.

Regarding AGTTGCTCAAACCAACATTATTAGCAGCAG, the binding signal (log2 normalized intensity) is -1.39.

Turning to CTGGTGTAGTGGGGAGGGCATGGACTTTGG, the binding signal (log2 normalized intensity) is 6.38.

In the case of TTGCTATGCAAACAGACTGGCGGCGTTTCG, the binding signal (log2 normalized intensity) is -1.42.

GCGCAAACTATCTAAACAGACTAGTACAAC: the binding signal (log2 normalized intensity) is -1.1.

Regarding GAGAGGACTACAGGCCCTGCATTTTTAGGC, the binding signal (log2 normalized intensity) was -1.32.

Consider GCCCTGAGCCAAGGGAGCACAACCCGGGCG, for which the binding signal (log2 normalized intensity) is -1.3.

Consider TTAAGATGATATAGCTGTTCATTAGACTCA, for which the binding signal (log2 normalized intensity) was 1.37.

As to GCACCTTTTAAAATAGATAAGTCCCTAAGA, the binding signal (log2 normalized intensity) was -1.29.

Consider CAGGTCCAAGGTTCTCCAGGGACCCCCCGA, for which the binding signal (log2 normalized intensity) came out at 3.91.

With TTCCCTCGACTTCCTCTTCATATCAGTAAA, the binding signal (log2 normalized intensity) is 0.77.

Consider CTGAAAGCAAACAATGATGAAAGGAGCTTG, for which the binding signal (log2 normalized intensity) was -1.07.

As for TCCCTCTGCTCCCCTGGCCTCACCCTTGTC, the binding signal (log2 normalized intensity) was determined as 2.7.

With GCTTTCTTTCCTAATGGTACCATCTGCCAC, the binding signal (log2 normalized intensity) came to 0.799.

As to AGGCTGCCGTCCTCAGTGAATCACAGCAGC, the binding signal (log2 normalized intensity) is -1.26.

Turning to CTTCAAGTCAGTCAAAATGAATAGTCCTTT, the binding signal (log2 normalized intensity) came out at 0.855.

For AGAGAAGATAATGGATTGGGGGCCATGTCT, the binding signal (log2 normalized intensity) was -1.13.

On to CTGGCTAAACCAGCCTAACAGGATTTTTGC, for which the binding signal (log2 normalized intensity) is -1.3.

As for AGTCTGGTGGCAAGTACCCTTTATCCCTCA, the binding signal (log2 normalized intensity) worked out at 1.51.

As for TCAGAGCAGGTGAACGACTTGACAAAGGTC, the binding signal (log2 normalized intensity) amounted to 4.1.

Take GTCTGGCTGACTAACAAGCTGCCAAACTCT: the binding signal (log2 normalized intensity) is -1.31.

Turning to TTATCATTCTAGAGGTCAGAAGTCCAAAAT, the binding signal (log2 normalized intensity) came out at 5.5.

On to AAACATAAAGGCAAAGGTCAAGGACTGTTC, for which the binding signal (log2 normalized intensity) amounted to 4.18.

Take CTCTCTGATTACACAGGCCTTATAGGGCAT: the binding signal (log2 normalized intensity) was 0.758.

Turning to GGGAGGGCACAGGTCAAAAATGATGCCTGA, the binding signal (log2 normalized intensity) was found to be 1.06.

As for GTGTGGATACGATGACATCATCTGTTTGTA, the binding signal (log2 normalized intensity) was found to be 0.746.

With CAAGGGTCAGTTCATTAAAAAAAAAAAAAA, the binding signal (log2 normalized intensity) is 0.208.

On to TGGCATGTGATAGGCATGCAAACTTTGTTT, for which the binding signal (log2 normalized intensity) is 0.31.

As to TCAAAGGGCAGACAGGAACATCTGATTTCC, the binding signal (log2 normalized intensity) was -1.37.

With TGGTCCGCCTTCATTCCTAGCCCCACCAAA, the binding signal (log2 normalized intensity) was found to be 4.25.

As to CCCTCCCTAAATCCAGAGGTATTTGGCCCA, the binding signal (log2 normalized intensity) came to 1.83.

On to TGTTATCTCTGGAGGTCACTGCTGGTGGGT, for which the binding signal (log2 normalized intensity) came to 2.04.

Take GGTCAGCAATGTGGACTTTGTCCTGTGGGC: the binding signal (log2 normalized intensity) stood at 8.67.

For AAGAGAGGAGGCTGAAGACTTTGCACCAAG, the binding signal (log2 normalized intensity) is 1.35.

Regarding TCACTGCTCCAGCCACTCATTCTTGGAATG, the binding signal (log2 normalized intensity) was -1.3.

As to CGGGAGGCAAGATAAGGGTAATCACCCCCA, the binding signal (log2 normalized intensity) came out at 2.63.

With AATACGCCTCGCCCGAGCTGTGCGGTAGGC, the binding signal (log2 normalized intensity) is -1.43.

Turning to TGGAATGTGCTCCCGACTGCTCCACCAGCG, the binding signal (log2 normalized intensity) is -1.31.

Regarding AAAGTCTGGATCCGTTAACAGCGGCATTCC, the binding signal (log2 normalized intensity) was -1.32.

Consider GTGCTCCCCCACCCTGTGTCAGCATCTAAA, for which the binding signal (log2 normalized intensity) was 3.42.

As to TTGCATAATCTGGCTCCAAAGTCTATGTGT, the binding signal (log2 normalized intensity) turned out to be 2.75.

Regarding CTGAGTATTATCTTTTTAATCAATAATCTT, the binding signal (log2 normalized intensity) is 0.839.

Take CACTGCCCATCCCCACTGAAAGTGTGTTAA: the binding signal (log2 normalized intensity) was determined as 2.02.

Turning to TATTGGAAGAATGGAATTGCCATTGACTGA, the binding signal (log2 normalized intensity) is 0.435.

Regarding GTGTATCAATGGCCCCAGTGCACGTGCATG, the binding signal (log2 normalized intensity) was 0.168.

Regarding CTAGATAAGGGAGATGAAAGGGGCCTCAGA, the binding signal (log2 normalized intensity) was -1.33.

With GGAGCATTAGTTGACCATTGTGTTAAAGGA, the binding signal (log2 normalized intensity) amounted to 1.37.

For ATCGAAAATCCCCCACCATTGTTATCTGAT, the binding signal (log2 normalized intensity) was 2.58.

Consider TGGAGGCCCAGTAAGTCCCACCCACTAGGC, for which the binding signal (log2 normalized intensity) came to 2.19.

With TCACAAGAAAGGCAGAAAACTCAGATTCCT, the binding signal (log2 normalized intensity) is -1.32.

CCCGGGAATTCTGGGTAGTGTAGTTCCGCT: the binding signal (log2 normalized intensity) was -1.33.

With CATGGGCAAATAAAGCTAACCAGCTCTATC, the binding signal (log2 normalized intensity) was -1.26.

As for TTTGATCTGATGTACCCAGCACTGTCAGCA, the binding signal (log2 normalized intensity) was -1.37.

Consider GGATTAAGGAGAAGGCTCCCAAGGTATCCT, for which the binding signal (log2 normalized intensity) was -1.11.

As to TGCCGCAACATTGTCCAGCAGACACGGGCA, the binding signal (log2 normalized intensity) is -1.15.

Turning to GGTCCACCGTGCGCAAACACACCCACCAAC, the binding signal (log2 normalized intensity) worked out at 1.37.

Take ACAGATGGGCTTGCCTAAGACATGCTCGCA: the binding signal (log2 normalized intensity) is -1.16.

With CAGTGTCACAGACTTAGCACAGGAAAGGGC, the binding signal (log2 normalized intensity) is -0.078.

For ACCTTGCTGATTACAGGTTGCAGTAAAGAA, the binding signal (log2 normalized intensity) is -1.04.

On to TATCTCCCAGCTGGAGTCTTCTCTATCCTT, for which the binding signal (log2 normalized intensity) is -1.16.

As to AGGGTCTGTTTTCAAACACAGGATTGAACC, the binding signal (log2 normalized intensity) was 2.94.

Consider AGGACAGGGCCCTTCACTATTTTCAAAGGT, for which the binding signal (log2 normalized intensity) was -1.41.

For CTTCCTGACTTGGCCTGAACCAGTTTCTCA, the binding signal (log2 normalized intensity) is -1.29.

As for ACTCATGAGCCATCCTGAACAAATGTACTG, the binding signal (log2 normalized intensity) is -1.16.

In the case of GCTCTTTGTACCGTTTGAACAGCCAAGGAA, the binding signal (log2 normalized intensity) is 1.43.

With AAAACACAGCTCACCACCTAGTAAAGGGTG, the binding signal (log2 normalized intensity) is -1.16.

Regarding TTGAAGTGACTAAATGAGAAGAAATGATGG, the binding signal (log2 normalized intensity) was -0.808.

For the sequence AAGACTTCCTGGCCTCTCTGCAAATTTGCC, the binding signal (log2 normalized intensity) was -0.678.

In the case of AATGCACTTGTTCCGGATAGCCAAATAGCC, the binding signal (log2 normalized intensity) was -1.37.

As to ATGCTCAGCCCACCTTTTGGCTGTAGAAAG, the binding signal (log2 normalized intensity) was -0.224.

Turning to AGGCATGAGAGGTGCTGCATGGGCTGAGCC, the binding signal (log2 normalized intensity) was -1.38.

As to TACCGACAACGCCAAGGACCGCCAAGGAAG, the binding signal (log2 normalized intensity) was -1.31.

Regarding AACCCGCCCCCTCCCCCTGCCGGCGGCGCA, the binding signal (log2 normalized intensity) turned out to be 6.05.
